Data reported in PubChem BioAssay AID1159614 (National Center for Advancing Translational Sciences (NCATS), 2016).
The whole screen tested about 45,000 compounds, of which about 65 (0.1%) were called active. Calls follow the shape of the dose curve; as a rule, active = well fitted activation curve with a large enough effect; inconclusive = small, poorly fitted or top-dose-only effect; inactive = no such curve, though single readings can be large or run the other way. Some of the results follow.

These compounds were tested against Galactocerebrosidase (Homo sapiens) (UniProt P54803) (assay: A Novel Cell-Based Assay to Identify Small Molecules for B -Galactocerebrosidase). Conditions: 145M-Twi-hGALC-G270D cells (Twitcher mouse brain line with human GALC G270D), HMU-beta-Gal fluorescence, 48 h; series mostly up to 57.5 µM; activation: at the top concentration.
Sequence of UniProt P54803 (P54803 whole entry, looked up): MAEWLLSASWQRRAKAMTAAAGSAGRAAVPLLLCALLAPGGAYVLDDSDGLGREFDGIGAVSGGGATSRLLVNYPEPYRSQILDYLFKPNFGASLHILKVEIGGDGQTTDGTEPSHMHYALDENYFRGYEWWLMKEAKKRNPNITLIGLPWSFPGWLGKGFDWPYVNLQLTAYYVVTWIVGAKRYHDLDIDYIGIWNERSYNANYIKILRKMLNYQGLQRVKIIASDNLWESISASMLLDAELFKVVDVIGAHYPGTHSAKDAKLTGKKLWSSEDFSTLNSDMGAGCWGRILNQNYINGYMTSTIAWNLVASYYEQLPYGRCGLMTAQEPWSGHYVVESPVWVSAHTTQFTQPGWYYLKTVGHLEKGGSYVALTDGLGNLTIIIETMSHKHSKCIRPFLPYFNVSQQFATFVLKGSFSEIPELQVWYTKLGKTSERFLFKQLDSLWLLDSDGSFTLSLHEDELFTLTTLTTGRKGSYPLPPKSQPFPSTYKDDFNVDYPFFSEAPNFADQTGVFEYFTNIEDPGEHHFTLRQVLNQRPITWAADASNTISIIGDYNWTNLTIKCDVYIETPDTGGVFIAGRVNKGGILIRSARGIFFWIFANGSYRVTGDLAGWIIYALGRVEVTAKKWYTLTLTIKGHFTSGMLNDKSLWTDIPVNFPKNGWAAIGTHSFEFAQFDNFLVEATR
Summary of the method: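 Fluorescence readout: HMU-β-gal cleavage by mutant GALC (0.1 mM final, citrate/phosphate pH 5.2 with 1 mg/mL taurocholate), stopped with carbonate/bicarbonate plus Triton X-100. Cells: murine Twitcher 145M-Twi expressing human G270D GALC; qHTS for activators.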
Also: 0% is about no effect; nearly all actives have a fitted effect of over 65% in size.

activation, inactive:
CCOC(=O)CNc1ncnc2c1nnn2C -3.34%
CC(=O)Nc1nonc1-c1nnc(SCc2ccc(C)cc2)n1C -6.99%
COc1ccc(OC)c(NC(=O)[C@H](Cc2ccccc2)N2Cc3ccccc3C2=O)c1 -6.73%
O=C(CC1C(=O)N(c2ccccc2)C(=O)N1CCc1cccs1)Nc1ccc(Cl)cc1 (stereo unspecified) -9.18%
Cc1c(C(=O)Nc2cccc(C(F)(F)F)c2)oc2ccc(S(=O)(=O)N(C)C3CCCCC3)cc12 -9.19%
CCNC(=O)c1ccc(-n2c(-c3ccccc3)cc3c2CCCCC3)cc1 -12.1%
COc1cccc(CNC(=O)CCc2c(C)nn(-c3ccc(N4CCOCC4)nn3)c2C)c1 -11.2%
COc1cccc(-c2cc(C(=O)Nc3ccc(F)cc3)[nH]n2)c1 -11.7%
CCCNC(=O)c1c2c(nc3ccccc13)C(=O)N(C1CCCCC1)C2 -5.96%
Cc1cccn2c(=O)c(/C=C(\C#N)c3nc4ccccc4n3C)c(Oc3ccc(Cl)cc3)nc12 -6.43%
CCCc1cc(=O)[nH]c2nnc(SCC(=O)Nc3cccc(C)c3)n12 -33.8%
CCOc1cc(-c2nnc(SCC(=O)NCc3ccc(C)cc3)nc2-c2ccc(OC)c(OCC)c2)ccc1OC -3.44%
CC1C(=O)N2CCCc3cc(S(=O)(=O)Nc4ccc(Br)cc4F)cc1c32 (stereo unspecified) -5.55%
COc1ccc(OC)c(NC(=O)c2nc(SCc3ccccc3F)ncc2Cl)c1 6.79%
COc1cccc(NC(=O)C2CCCN2S(=O)(=O)c2ccc3c(c2)n(C)c(=O)c(=O)n3C)c1 (stereo unspecified) 1.11%
O=C(Cn1c(=O)oc2cc(S(=O)(=O)NCc3ccccc3)ccc21)N(CCO)Cc1ccccc1 3.21%
CCC1CN(C(=O)Nc2cc(OC)cc(OC)c2)c2ccccc2S1 (stereo unspecified) -5.8%
Cc1ccc2oc(C(=O)Nc3sc4c(c3C(=O)NCc3ccccc3)CCCC4)cc(=O)c2c1 -5.82%
CCOc1ccc(NC(=O)c2ccc3nc(Cc4ccccc4)oc3c2)cc1 -10.4%
CCc1cccc(-n2c(=O)c3cccnc3n2CC(=O)Nc2ccccc2C(=O)OC)c1 -33.6%
N#CC1=C2SCN(C3CCCCC3)CN2C(=O)CC1c1ccc(F)cc1 (stereo unspecified) -14.5%
CCC(=O)N1CCc2cc(S(=O)(=O)NC(Cc3ccccc3)C(=O)NCc3ccc(F)cc3)ccc21 (stereo unspecified) -13.6%
Nc1ccc(C(=O)OCC(O)CO)cc1 (stereo unspecified) -10%
Cc1ccc(OCC(=O)OCc2cc(=O)n3c(C)csc3n2)cc1 -4.88%
Cc1ccccc1NC(=O)N1CCC(CN2CCCC2)CC1 -8.89%
COc1ccc(-n2nc3cc(C)c(NC(=O)c4ccc(C)cc4C)cc3n2)cc1Cl -18.6%
CCc1ccccc1NC(=O)CN1C(=O)COc2ccc(S(=O)(=O)N3CCCCCC3)cc21 -1.93%
CCN(CC)S(=O)(=O)c1ccc2c(c1)N(CC(=O)NCC(C)c1ccccc1)C(=O)CO2 (stereo unspecified) -10.7%
COc1ccccc1CNC(=O)c1ccc2c(c1)N(Cc1ccc(C)cc1)CCS2 -18.5%
CCn1cc(C(=O)N2CCN(c3ccccc3OC)CC2)c(=O)c2cc(S(=O)(=O)N3CCC(C)CC3)ccc21 -9.13%
Cc1ccc(-n2ncc3c(N4CCCCCC4)ncnc32)cc1C -13.9%
CNS(=O)(=O)c1cn(CC(=O)N2CCN(c3cccc(Cl)c3)CC2)cc1S(=O)(=O)NC 1.56%
CC(=O)Oc1cccc(C)c1 -16.1%
CC(C)Oc1ccc(CNC(=O)c2ccccc2NC(=O)c2nsc3ccccc23)cc1 -14.6%
COC(=O)c1ccc(CN(Cc2ccc(OC)c(OC)c2)S(=O)(=O)c2cc(C(=O)Nc3cccc(C)c3)ccc2F)cc1 -7.14%
O=S(=O)(NCCc1nnc2ccc(SCc3c(F)cccc3Cl)nn12)c1ccccc1 -3.67%
CCC(Oc1ccccc1)C(=O)Nc1ccc(OCc2cc(=O)n3ccc(C)cc3n2)cc1 (stereo unspecified) -5.89%
Cc1oc(-c2ccccc2F)nc1CSCC(=O)NCCc1ccccc1 -12.2%
Cc1ccc(NC(=O)CSc2nc3ccc(NC(=O)CCc4ccccc4)cc3s2)c(C)c1 -23.2%
CCN(CC)C(=O)C1=CC(c2ccc3c(c2)OCO3)=NS(=O)(=O)N1C -8.01%
O=C(CCCCn1c(=O)c2ccccc2n(Cc2ccccc2F)c1=O)NCc1ccccc1Cl -4.93%
CC(C)CCNC(=O)c1cc(Sc2ccc(F)cc2F)nc2ccccc12 -16.4%
COc1ccc(N2C(=O)CS(=O)(=O)C23C(=O)N(Cc2c(F)cccc2Cl)c2ccccc23)cc1 (stereo unspecified) -26.7%
COc1ccc(NC(=O)CN(C)S(=O)(=O)c2ccc3nc(C)sc3c2)cc1 -13.1%
O=C(CN1CCN(CC(=O)Nc2ccccc2F)CC1)Nc1ccc(Cl)c(C(F)(F)F)c1 0.626%
CCOC(=O)C1=C(C(F)(F)F)Nc2ncnn2C1c1cccc(OC)c1OC (stereo unspecified) -13.5%
COc1ccc(NC(=O)C2=C(C)Nc3ncnn3C2c2ccccn2)cc1 (stereo unspecified) 1.86%
CCOC(=O)c1cnc2c(C)cc(C)cc2c1Nc1ccc(OCc2ccccc2)cc1 -27.5%
CCCCn1cc(S(=O)(=O)c2ccccc2)c(=O)c2cc(F)c(N3CCC(C)CC3)cc21 -10.1%
CCc1ccc(NC(=O)C2CCN(S(=O)(=O)c3c(C)noc3/C=C\c3ccc(OC)cc3)CC2)cc1 -10.3%
O=C(NCCc1ccccc1)c1ccc(CSc2nc3ccncc3n2Cc2cccc(F)c2)cc1 -13.3%
COc1cc(C(=O)Nc2ccc(OCc3cc(=O)n4cccc(C)c4n3)cc2)cc(OC)c1OC -31.4%
CC1=C(c2ccc(C)c(C)c2)S(=O)(=O)N=C1N1CCC(C(=O)N2CCCCC2)CC1 1.63%
CCOc1ccc(CNC(=O)CCc2cn(CC)c3ccccc23)cc1 -4.44%
CCCOc1ccccc1-c1nc2n[nH]nc2c(=O)[nH]1 -11.8%
COc1ccc(-n2nc(C(=O)NCc3ccc(F)cc3)c3c4ccccc4n(C)c3c2=O)cc1 -8.51%
CN(C)c1ccc(CNC(=O)c2ccc3c(c2)N(C)C(=O)C2CCCCN32)cc1 (stereo unspecified) -14.8%
O=C(c1cnc(N2CCOCC2)c2ccccc12)N1CCN(c2ccccc2F)CC1 -4.8%
CCOc1ccccc1N1CC(c2nc3ccccc3n2CCCCOc2cc(C)ccc2C)CC1=O (stereo unspecified) -8.01%
COc1ccccc1CNc1ccc(-c2nc(-c3cccc(C)c3)no2)cc1[N+](=O)[O-] -5.51%
CCCCOc1ccc(CN2C(=O)C(=O)c3cc(C)ccc32)cc1OC -8.38%
CCN(CC)C(=O)c1sc2c(c1C)c(=O)n(CCc1ccccc1)c(=O)n2Cc1cccc(Cl)c1 -11.8%
CC(C)NC(=O)C1CCN(C(=O)N2CC(C)Oc3ccccc32)CC1 (stereo unspecified) -8.84%
CCOc1ccc2nc(N3CCCC(C(=O)NCc4ccc(C)cc4)C3)sc2c1 (stereo unspecified) -7.59%
COc1ccccc1NC(=O)Cn1c(=O)n(Cc2nc(-c3ccccc3)no2)c(=O)c2ccccc21 -13.4%
Cc1ccc(C)c(NC(=O)Nc2csc3c2CCCC3)c1 -11.9%
CCS(=O)(=O)NCCc1csc2nc(-c3ccc(C)cc3)nn12 -11.7%
COc1ccc(NC(=O)Cn2cc(C(=O)c3cccs3)c3ccccc32)cc1 -9.19%
O=C(COCc1cc(-c2cccs2)on1)Nc1cccc(O)c1 -21.5%
CCC1=C(c2ccc(C)cc2)S(=O)(=O)N=C1N1CCC(C(=O)N2CCCCC2)CC1 -2.35%
COC(=O)c1c(C)sc(-c2c(-c3ccc4c(c3)OCCO4)[nH]c3c2c(=O)[nH]c(=O)n3C)c1O -26.5%
Cc1cccc(-n2c(-c3ccco3)nc3c(cnn3-c3ccc(F)cc3)c2=O)c1 -21.3%
Cc1ccc(-n2cnc3cc(C(=O)NC4CCCCCC4)ccc32)cc1Cl 3.07%
Cc1c(CNCCCc2ccccc2)c(C(=O)O)c(C)n1Cc1cccc(Cl)c1 -1.7%
COc1ccc(NC(=O)C2CCN(S(=O)(=O)c3c(C)noc3/C=C/c3ccc(C)cc3)CC2)cc1Cl -10.7%
COc1ccc(-c2nn(C)c3sc(C(=O)N4CCN(c5cccc(Cl)c5)CC4)cc23)cc1OC -16.4%
CCc1ccc(OCC(=O)Nc2ccc3oc(-c4ccc(OC)cc4)nc3c2)cc1 -16.5%
CCc1ccc(OCC(=O)Nc2ccc(Cl)c(-c3nc4ncccc4o3)c2)cc1 -15.3%
O=C(COc1ccccc1)Nc1c(Cl)ccc2nsnc12 0.115%
COC(=O)CC1Oc2ccc(Cl)cc2-n2cc(-c3ccc(F)cc3)nc21 (stereo unspecified) 0.268%
Cc1ccc(NS(=O)(=O)c2ccc3[nH]c4c(c3c2)CCCCC4)cc1 -41.3%
COc1ccc(S(=O)(=O)c2cn(C)c3cc(N4CCOCC4)c(F)cc3c2=O)cc1 -16.7%
Cc1ccc(OCc2cc(=O)n3cc(C)sc3n2)c(C)c1 -0.839%
CCN1CCN(C(=O)c2c(C)nn(-c3ccc(F)cc3)c2-n2cccc2)CC1 -7.74%
CC(C)(C)NC(=O)CCSc1nc(-c2ccc3c(c2)OCO3)cc(C(F)(F)F)n1 -13.6%
CCOc1ccc(S(=O)(=O)NCC(c2cccs2)S(=O)(=O)c2ccc(C)cc2)cc1 (stereo unspecified) -12.6%
Cc1ccc(C)c(N(C)S(=O)(=O)c2ccc3[nH]cc(C(=O)NC4CCCC4)c(=O)c3c2)c1 7.44%
CN(C)c1ccc(CNC(=O)c2cccn2-c2nnc(N3CCCCC3)s2)cc1 -6.82%
CCCCOc1ccc(C(=O)NCCc2csc(-c3ccc(OC)cc3)n2)cc1 -8.9%
CCOC(=O)c1cnc2nc(NCc3ccc(OCC)cc3)[nH]n2c1=O -15%
Cc1ccc(C)c(NC(=O)CSc2nc(-c3ccccc3Cl)nc3c2Cc2c(CO)cnc(C)c2O3)c1 -10.6%
Cc1c(C(=O)OCCOc2ccccc2)[nH]c2c1C(=O)CC(c1ccccc1Cl)C2 (stereo unspecified) -23%
CCOC(=O)c1cccc(NC(=O)c2nn(-c3ccc(OC)cc3)c(=O)c3c2c2ccccc2n3C)c1 -10.6%
CN(Cc1ccccc1)c1ccc(-c2nc(-c3cccnc3)no2)cc1[N+](=O)[O-] -9.92%
CCN(Cc1ccccc1)S(=O)(=O)c1ccc2[nH]c3c(c2c1)CCCCC3 1.38%
Cc1cc(-c2nc3ncccc3o2)ccc1NC(=O)COc1cc(C)c(Cl)c(C)c1 -3.88%
